Assay results published in PubChem BioAssay AID540317 (National Center for Advancing Translational Sciences (NCATS), 2011).
Several values for one entry are separate records, joined by “and”; a condition that tells them apart may be missing. Identical values can stand only once. About 2,200 (0.56%) of roughly 390,000 compounds were called active. Inconclusive means that the source gave no clear call. Such entries were picked first, then a sample of the others. Calls follow the shape of the dose curve; as a rule, active = well fitted inhibition curve with a large enough effect; inconclusive = small, poorly fitted or top-dose-only effect; inactive = no such curve, though single readings can be large or run the other way. A potency beside an inconclusive call is a rough fit, not a confirmed value.
Also: nearly all actives have a fitted effect of over 70% in size.
Potency is read from the fitted curve at half-maximal effect; tags tell the direction and shape of the fitted curve.

These compounds were tested against Chromobox protein homolog 1 (Homo sapiens) (UniProt P83916) (assay: HTS for Inhibitors of HP1-beta Chromodomain Interactions with Methylated Histone Tails). Details: AlphaScreen HP1-beta / biotin-H3K9me3 peptide binding; series mostly up to 114 µM.
Chain of UniProt P83916 (P83916 whole entry, looked up): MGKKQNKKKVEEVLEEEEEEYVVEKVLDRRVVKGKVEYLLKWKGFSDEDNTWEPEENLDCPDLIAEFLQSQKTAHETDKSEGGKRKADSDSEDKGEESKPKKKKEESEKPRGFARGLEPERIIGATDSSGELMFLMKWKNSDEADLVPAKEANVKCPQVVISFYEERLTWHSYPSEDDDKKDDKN
Procedure, shortened: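 HP1-beta protein (50 nM final) preincubated 30 min at room temperature with biotinylated H3(1-18)K9me3 peptide (50 nM) in PBS pH 7.4, 0.01% Tween-20, then compound added for 30 min. AlphaScreen streptavidin donor/nickel chelate acceptor beads (10 ug/mL final), 30 min dark, luminescence read.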
With `CC(C)(C)c1ccc(S(=O)(=O)/N=C2\C=C(NS(=O)(=O)c3ccccc3)C(=O)c3ccccc32)cc1` the Potency was inconclusive: 20 µM [inhibitor, partial curve]. For `N#Cc1ccccc1S(=O)(=O)N1CCN(CC(O)CN2CCOCC2)CC1` (stereo not drawn), the Potency was inconclusive: 15.8 µM [inhibitor, partial curve, poor fit]. `Cc1cccc(Cn2c(-c3ccccc3)nc3ccccc32)c1` was tested, and the Potency was “inactive”. With `O=C(/C=C/c1ccccc1)c1cc(Br)ccc(=O)c1O` the Potency was inconclusive: 17.8 µM [inhibitor, full curve]. `COc1ccc(O)c(C(=O)c2cc(SCC(=O)O)c3nc4sc5c(c4c(=O)n3c2)CCCC5)c1` was tested, and the Potency was active: 25.1 µM. With `c1cncc(N=c2scc(-c3cccc4ccccc34)n2CCCn2ccnc2)c1` the Potency was inconclusive: 28.2 µM [inhibitor, partial curve]. In the case of `Cc1ccc(C)c(-c2nn(-c3cc(N4CCN(CCO)CC4)ccc3[N+](=O)[O-])c(=O)c3ccccc23)c1`, the Potency is reported as inconclusive: 63.1 µM [inhibitor, single point]. In the case of `CCC(C)NCCCOc1cc(Cl)ccc1Cl` (stereo not drawn), the Potency is reported as inconclusive: 56.2 µM [inhibitor, partial curve, poor fit]. For `COC(=O)c1ccc2nc(NC(=O)COC(=O)CSc3nc(C)cc(C)n3)sc2c1`, the Potency was “inactive”. With `CN(CC(=O)Nc1cccc(F)c1)C(=O)c1cccc(-n2cccc2)c1` the Potency was inconclusive: 50.1 µM [inhibitor, partial curve, poor fit]. With `C=CCN(CC=C)C(=O)C1CCN(Cc2ccc(OCc3ccccc3)cc2)CC1` the Potency was inconclusive: 44.7 µM [inhibitor, partial curve]. With `O=C(CCCNC(=O)c1ccc(Cl)cc1)Nc1ccc(Br)cc1` the Potency was “inactive”. With `Cc1ccc(-c2cc(C(=O)Nc3nccs3)c3ccccc3n2)c(C)c1` the Potency was “inactive”. With `Oc1ccc(/C=N/N=C(c2ccccc2)c2ccccc2)c(O)c1O` the Potency was active: 44.7 µM. In the case of `CCn1cc(C(=O)N[C@@H](CCSC)C(=O)NCCCO)c(=O)c2cc3c(cc21)OCO3`, the Potency is reported as “inactive”. For `CC1=CC(C)(C)N(C(=O)CNC2CCCC2)c2cc(C)ccc21`, the Potency was inconclusive: 14.1 µM [inhibitor, partial curve, poor fit]. `CC(=O)Nc1ccc(C=NNc2ccc(S(=O)(=O)Nc3ccccc3C(=O)O)cc2[N+](=O)[O-])cc1` was tested, and the Potency was inconclusive: 50.1 µM [inhibitor, partial curve, poor fit]. With `Cc1nn(-c2ccccc2)c2[nH]c(=O)c(CNc3ccc(N4CCOCC4)cc3)cc12` the Potency was inconclusive: 11.2 µM [inhibitor, partial curve, poor fit]. `COc1ccc(CN2CCN(C(=O)CC(C)C)CC2)cc1` was tested, and the Potency was inconclusive: 17.8 µM [inhibitor, full curve]. With `COC(=O)C1=C(C)N(CC2CCCO2)C(=O)/C1=C\c1ccc(O)cc1` (stereo not drawn) the Potency was inconclusive: 89.1 µM [inhibitor, single point]. In the case of `COc1ccc(N2CCN(CCCNC(=O)C3COc4ccccc4C3)CC2)cc1` (stereo not drawn), the Potency is reported as inconclusive: 6.31 µM [inhibitor, single point]. For `Cc1cc(C(F)F)n2nc(C(=O)Nc3sc4c(c3C#N)CCC4)nc2n1`, the Potency was inconclusive: 50.1 µM [inhibitor, partial curve]. For `CCN(CC)CCN(CC(=O)N(C1CCCCC1)C1CCCCC1)C(=O)c1ccco1`, the Potency was inconclusive: 50.1 µM [inhibitor, partial curve, poor fit]. For `COc1ccc2nc(/N=C\N(C)C)sc2c1`, the Potency was inconclusive: 28.2 µM [inhibitor, partial curve, poor fit]. `CCOC(=O)C1=NN(c2ccccc2)C2(S1)SC(C(C)=O)=C(C)N2c1ccccc1` (stereo not drawn) was tested, and the Potency was inconclusive: 17.8 µM [inhibitor, single point]. `COc1cc(/C=C2\C(C)=C(C#N)c3nc(N)c(C#N)c(C)c32)ccc1OCC(=O)O` was tested, and the Potency was “inactive”. In the case of `O=C(N/N=C/c1ccc([N+](=O)[O-])o1)C(=O)Nc1ccc(C(=O)O)cc1`, the Potency is reported as “inactive”. With `COc1cc(-c2nc3sccn3c2Nc2c(C)cccc2C)ccc1O` the Potency was inconclusive: 44.7 µM [inhibitor, partial curve, poor fit]. `Cc1ccc(-n2c(Cc3cccc4ccccc34)n[nH]c2=S)c(C)c1` was tested, and the Potency was “inactive”. With `CC(C)(C)c1ccc(C(=O)CSc2ncn[nH]2)cc1` the Potency was inconclusive: 63.1 µM [inhibitor, single point]. `O=C(CN1CCN(c2ccc(O)cc2)CC1)Nc1cc(S(=O)(=O)N2CCOCC2)ccc1Cl` was tested, and the Potency was active: 79.4 µM. For `CC(C)c1nnc(SCC(=O)NCCC2=CCCCC2)n1N`, the Potency was inconclusive: 15.8 µM [inhibitor, full curve]. For `COc1ccc(N=Nc2cc(-c3ccccc3)ccc2O)cc1`, the Potency was inconclusive: 10 µM [inhibitor, full curve]. In the case of `O=S(=O)(c1ccc(Cl)cc1)c1nc(-c2cccs2)oc1N1CCCCC1`, the Potency is reported as inconclusive: 17.8 µM [inhibitor, partial curve, poor fit]. `COc1ccc(CCNCc2cc(C)n(-c3ccc(OC)cc3)c2C)cc1` was tested, and the Potency was inconclusive: 39.8 µM [inhibitor, partial curve]. For `C/C(=N\NC(=S)NCCc1ccccc1)c1ccc(O)cc1O`, the Potency was inconclusive: 20 µM [inhibitor, full curve]. In the case of `O=C(O)C1Cc2ccccc2CN1S(=O)(=O)c1ccc2ccccc2c1` (stereo not drawn), the Potency is reported as “inactive”. In the case of `NC(=O)c1cccnc1Oc1cccc(Cl)c1`, the Potency is reported as inconclusive: 39.8 µM [inhibitor, single point]. `COc1ccc2nc(N3CCCCC3)c(/C=C3\SC(=S)NC3=O)cc2c1` was tested, and the Potency was inconclusive: 39.8 µM [inhibitor, partial curve]. For `O=C(NNC(=O)c1ccccc1F)c1ccc(NS(=O)(=O)c2ccc(F)cc2)cc1`, the Potency was “inactive”. `COc1ccc(-n2c(SCC(=O)N3CCCC(C)C3)nnc2-c2cccnc2)cc1` (stereo not drawn) was tested, and the Potency was “inactive”. For `Cn1ccc(C(=O)NC(=S)N2CCSCC2)n1`, the Potency was inconclusive: 70.8 µM [inhibitor, partial curve]. For `Cc1ccc(NC(=O)N2CC3CCCN3c3ccccc32)cc1C` (stereo not drawn), the Potency was inconclusive: 12.6 µM [inhibitor, full curve, poor fit]. `CN(C)c1ccc(CN(Cc2ccco2)C(=O)COc2ccc(F)cc2)cc1` was tested, and the Potency was inconclusive: 20 µM [inhibitor, full curve]. For `CCS(=O)(=O)N1Cc2ccccc2CC1C(=O)NCCc1ccccc1` (stereo not drawn), the Potency was “inactive”. For `COC(=O)CCS(=O)(=O)c1nc(-c2ccccc2)cc(C(F)(F)F)n1`, the Potency was “inactive”. For `CCOc1ccccc1Nc1ccnc2cc(Cl)ccc12`, the Potency was “inactive”. `COc1ccc(C(=S)N2CCOCC2)cc1OS(=O)(=O)c1ccccc1[N+](=O)[O-]` was tested, and the Potency was inconclusive: 39.8 µM [inhibitor, partial curve]. For `Cc1ccc(-c2nc3n(n2)C(c2ccccc2Cl)C=C(c2ccc(Cl)cc2)N3)cc1` (stereo not drawn), the Potency was “inactive”. With `Cc1ccc(CC2S/C(=C(/C#N)C(=O)NCc3ccco3)N(c3ccccc3)C2=O)cc1` (stereo not drawn) the Potency was “inactive”. `Cc1ccccc1CN1CCN(CC2CC3C=CC2C3)CC1` (stereo not drawn) was tested, and the Potency was inconclusive: 17.8 µM [inhibitor, partial curve, poor fit]. With `CCNS(=O)(=O)c1ccc(NC(=O)c2ccccc2OCC)cc1` the Potency was inconclusive: 44.7 µM [inhibitor, partial curve]. `CCS(=O)(=O)N1CC(=O)N(c2cccc(Cl)c2)C(C)(C(=O)NC2CCCCCC2)C1` (stereo not drawn) was tested, and the Potency was “inactive”. For `COc1ccc(-c2cc(C(=O)NC(Cc3cc4ccccc4[nH]3)C(=O)O)c(C)o2)cc1OC` (stereo not drawn), the Potency was inconclusive: 79.4 µM [inhibitor, single point]. In the case of `Cc1nn(C)c(C)c1/C=C1/SC(=S)NC1=O`, the Potency is reported as “inactive”. In the case of `Cc1ccc(Cn2c(SCC(C)C)nc3c2c(=O)[nH]c(=O)n3C)cc1`, the Potency is reported as inconclusive: 12.6 µM [inhibitor, full curve]. `CN(C)S(=O)(=O)c1cccc(C(=O)NC(=S)N(CCC#N)Cc2cccnc2)c1` was tested, and the Potency was “inactive”. In the case of `CN(C)c1ccc(NC(=O)CSc2nnc(-c3cccs3)n2Cc2ccco2)cc1`, the Potency is reported as inconclusive: 20 µM [inhibitor, partial curve, poor fit]. For `O=C(Nc1ccc(-c2nc3ccccc3s2)cc1)c1cc(-n2cnnc2)ccc1Cl`, the Potency was “inactive”. `CCc1ccc(CNc2ncc(-c3cccc(OC)c3)n2C)cc1` was tested, and the Potency was inconclusive: 14.1 µM [inhibitor, full curve, poor fit]. In the case of `S=C(NCCc1ccccc1)Nc1ccc(Nc2ccccc2)cc1`, the Potency is reported as active: 11.2 µM. `CC(=O)Nc1ccc(CN2CCCN(C)CC2)cc1` was tested, and the Potency was inconclusive: 44.7 µM [inhibitor, partial curve, poor fit]. For `CCN1CCN(S(=O)(=O)c2ccc(Cl)c(C(=O)N(C)Cc3cccc(Cl)c3Cl)c2)CC1`, the Potency was “inactive”. In the case of `O=C(c1cccc(F)c1)N1CCN(Cc2c[nH]c3ccccc23)CC1`, the Potency is reported as inconclusive: 31.6 µM [inhibitor, partial curve]. In the case of `Cc1c(C(=O)N(Cc2ccc(N(C)C)cc2)CC2CCCO2)oc2ccccc12` (stereo not drawn), the Potency is reported as inconclusive: 20 µM [inhibitor, full curve] and inconclusive: 25.1 µM [inhibitor, full curve]. `O=C(N[C@@H](Cc1ccccc1)C(=O)OCc1ccccc1)c1nc[nH]c1C(=O)NC(c1ccccc1)c1ccccc1` was tested, and the Potency was “inactive”. For `O=C(N/N=C/c1ccc(N2CCCCC2)o1)c1ccccc1`, the Potency was inconclusive: 44.7 µM [inhibitor, partial curve]. With `C/C(C/C(C)=C1/SC(=S)NC1=O)=C1\SC(=S)NC1=O` the Potency was inconclusive: 4.47 µM [inhibitor, full curve].
